# Results as given in PMC5836133.
# The list shows a part of the results. At the low end of the ranking the order means little.
# Test system: T1, GST-NbGlk1(82-244)
# T1 sequence: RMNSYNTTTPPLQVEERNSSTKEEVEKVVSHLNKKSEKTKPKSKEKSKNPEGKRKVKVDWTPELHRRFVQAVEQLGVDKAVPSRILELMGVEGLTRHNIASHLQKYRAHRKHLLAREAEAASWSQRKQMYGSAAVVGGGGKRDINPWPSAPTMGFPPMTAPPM
# Assay: protein-binding microarray;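 further: rank-based score ranging −0.5 to +0.5 with E above 0.45 taken as significant binding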
# Details: NbGlk1 is a Golden2-like transcription factor of Nicotiana benthamiana; high values mean tight binding; most listed sequences are background and not binding sites; double strand, one strand shown
row,Sequence,binding signal [E-score]
1,AGTGACTA,-0.126
2,ATTAATGA,0.119
3,AAGCGTGG,-0.176
4,ACTCACCA,-0.057
5,ATAGCGTG,0.000991
6,AAATCTGT,0.446
7,ACCGGTAC,-0.213
8,ACAAGGAC,-0.14
9,ACTTGAAA,0.123
10,ACCTCTTC,-0.16
11,ATTCTGAG,0.196
12,AACAAATG,-0.0396
13,ATCGCCTA,0.229
14,ATCATCAA,0.0811
15,ACGTTGGG,-0.103
16,ACCCGAGG,-0.0907
17,AAGAGTAC,-0.242
18,AGTCAACT,-0.157
19,AACTGTCT,-0.0952
20,ATGAAGGC,-0.0808
21,AAGTGGCT,-0.217
22,AGGTCAGC,-0.249
23,ACTCTTTG,-0.0325
24,AGTTTACG,-0.12
25,AGCAGTCA,0.0204

row,Sequence,binding signal [E-score]
1,ACGTAGTG,-0.103
2,AATCATGG,0.258
3,AACTTAAC,0.00674
4,CAAGTGTA,-0.138
5,AATGCGTC,0.0232
6,ACCCCCGA,-0.101
7,AACCCACA,-0.0413
8,AAAAAGTG,0.0191
9,AACTGCTG,-0.104
10,ACATGGCC,-0.287
11,ATTGAAGC,-0.106
12,CAATCGTA,0.235
13,AAAGAGTC,-0.115
14,ATTAAATC,0.217
15,CACCCGCA,-0.0935
16,ACATAGGT,0.00977
17,AAAGCACG,0.0103
18,ACAGGAGA,0.0464
19,AAGATTCT,0.452
20,ACGTTATC,0.0824
21,AACAATGC,-0.107
22,ATGATAAG,0.0311
23,CAAACCAG,0.0874
24,AGGCCAGC,-0.308
25,ACAAGACT,-0.131

row,Sequence,binding signal [E-score]
1,AGCAGATG,-0.0683
2,CACTGTAC,-0.138
3,AATACATC,0.0093
4,AATAGTCG,0.00642
5,ACCCTGGG,-0.132
6,AACCAGTG,-0.174
7,AAGCAGGC,-0.249
8,AAAACTGG,-0.0736
9,AGAACCCG,-0.173
10,ATCTATCA,0.276
11,AGCTAGGC,-0.179
12,ATCCTCTG,0.3
13,AGAACGAG,-0.188
14,AGTGCTGA,-0.159
15,AGTGGCTC,-0.223
16,AAAGCTGT,0.116
17,CAGACGTA,-0.0408
18,AGCGACAC,-0.0946
19,CAATCGCA,0.23
20,ACTAATAT,0.209
21,CAAGGTAG,-0.0891
22,CAAGTCCA,-0.0826
23,ACGGCGCG,-0.122
24,AGTCCGAC,-0.0743
25,ACTGCCCT,-0.171

row,Sequence,binding signal [E-score]
1,ACACTCTG,-0.0476
2,CAAGGACG,-0.245
3,AGTGACAA,-0.0339
4,ACGATACT,0.194
5,ATACTCCC,0.0901
6,CAATTTAC,0.11
7,AGTGGCCC,-0.334
8,ATGGTTTC,-0.0215
9,ATACGTAG,0.0166
10,ATACTAGA,0.139
11,AACACAGG,-0.033
12,AAGCTGAG,-0.149
13,ACGTTGAT,0.0571
14,AACGATGA,-0.0136
15,ATGGAATG,-0.0857
16,AGACGGAG,-0.167
17,AGTGCCCA,-0.196
18,AAAACCCT,-0.146
19,AGTTAGCG,-0.0309
20,AGTTAGTG,0.025
21,AGCAACCT,-0.202
22,ACTGGTGC,-0.197
23,AAGAGAGC,-0.185
24,AACACGCT,-0.11
25,ATCACTCC,-0.00107

row,Sequence,binding signal [E-score]
1,AATCTTCA,0.388
2,AAGATGAC,-0.0149
3,CAATATAC,0.186
4,ACGGCTAA,-0.0623
5,ACGGCGTG,-0.153
6,AAGCTTCG,-0.0971
7,AGCACGTG,-0.115
8,ATTCGTCG,0.209
9,AACGTTAT,0.0462
10,AGAACATC,-0.0154
11,AGTTGGGC,-0.265
12,AATTGCGT,0.233
13,CAATTCTA,-0.0249
14,AAAAGTCT,-0.0634
15,CACTTCAA,-0.048
16,AATTTCTG,0.14
17,AAATGCCC,-0.0279
18,AAACTATG,0.0224
19,ATCGTATA,0.237
20,ACCCGACC,-0.283
21,ATCCGAAC,0.239
22,CAACCATC,-0.143
23,ACCGAGGC,-0.126
24,AGCAAAAT,0.241
25,ATACGCGC,0.223

row,Sequence,binding signal [E-score]
1,ATTTCCCG,0.309
2,CACGTGGC,-0.121
3,AGACATCC,-0.105
4,ACAGCCTC,-0.199
5,ACACCAAC,-0.159
6,ATACACCA,0.123
7,AAAACTTA,0.223
8,ATAAAGGC,-0.199
9,ACACGGAT,0.188
10,ACGGCCTG,-0.262
11,AACAGACT,-0.267
12,ATTATATC,0.273
13,AACTTCGT,0.0168
14,AGTTCCCA,-0.172
15,CAGCCGAC,-0.292
16,AGGTAGAT,0.237
17,ATCGCCAC,0.22
18,ACAGGACC,-0.191
19,AATATCAT,0.282
20,ACTCCTTA,-0.0183
21,ATATCTGA,0.399
22,ACCCAGGT,-0.301
23,ATACGACG,0.132
24,AGGAATTA,0.177
25,ATCTACTG,0.189

row,Sequence,binding signal [E-score]
1,ACCTCAGG,-0.125
2,ATCGACCA,0.0604
3,ACTGACAC,-0.149
4,AGGCGACT,-0.205
5,AGTCCAAT,-0.0711
6,AGATCCGC,0.34
7,ATTATAAA,0.181
8,ACTGCTAC,-0.116
9,CAGCATCG,0.0174
10,ATTAACCG,-0.163
11,CACTCCCG,-0.152
12,CAAGTTCG,-0.0617
13,ACCGATGG,-0.226
14,AATCAAAA,0.296
15,AAGCTCGG,-0.0526
16,ATCGTGAG,0.177
17,ATATATCC,0.262
18,CAATATAG,0.184
19,ACAGTCTG,-0.158
20,CACGTAGA,0.0632
21,AGTGGGCG,-0.197
22,AATTTGAC,0.108
